For 21 molecules, inhibition results are on record in PubChem BioAssay AID2073 (Sanford-Burnham Center for Chemical Genomics, 2009).

Structures are written as SMILES. The list shows a part of the results. The main result of the screen is listed elsewhere. These columns were measured beside it and carry no call.

In this experiment the target is Voltage-dependent N-type calcium channel subunit alpha-1B (Homo sapiens) (UniProt Q00975). Description: inhibitors of Mint1-CaV2.2 protein interaction, biochemical, HTRF (AID 2073). The settings on record: measured here: average of repeat tests, at 20 µM, stronger effect = higher value.
UniProt Q00975, sequence (Q00975 whole entry, looked up): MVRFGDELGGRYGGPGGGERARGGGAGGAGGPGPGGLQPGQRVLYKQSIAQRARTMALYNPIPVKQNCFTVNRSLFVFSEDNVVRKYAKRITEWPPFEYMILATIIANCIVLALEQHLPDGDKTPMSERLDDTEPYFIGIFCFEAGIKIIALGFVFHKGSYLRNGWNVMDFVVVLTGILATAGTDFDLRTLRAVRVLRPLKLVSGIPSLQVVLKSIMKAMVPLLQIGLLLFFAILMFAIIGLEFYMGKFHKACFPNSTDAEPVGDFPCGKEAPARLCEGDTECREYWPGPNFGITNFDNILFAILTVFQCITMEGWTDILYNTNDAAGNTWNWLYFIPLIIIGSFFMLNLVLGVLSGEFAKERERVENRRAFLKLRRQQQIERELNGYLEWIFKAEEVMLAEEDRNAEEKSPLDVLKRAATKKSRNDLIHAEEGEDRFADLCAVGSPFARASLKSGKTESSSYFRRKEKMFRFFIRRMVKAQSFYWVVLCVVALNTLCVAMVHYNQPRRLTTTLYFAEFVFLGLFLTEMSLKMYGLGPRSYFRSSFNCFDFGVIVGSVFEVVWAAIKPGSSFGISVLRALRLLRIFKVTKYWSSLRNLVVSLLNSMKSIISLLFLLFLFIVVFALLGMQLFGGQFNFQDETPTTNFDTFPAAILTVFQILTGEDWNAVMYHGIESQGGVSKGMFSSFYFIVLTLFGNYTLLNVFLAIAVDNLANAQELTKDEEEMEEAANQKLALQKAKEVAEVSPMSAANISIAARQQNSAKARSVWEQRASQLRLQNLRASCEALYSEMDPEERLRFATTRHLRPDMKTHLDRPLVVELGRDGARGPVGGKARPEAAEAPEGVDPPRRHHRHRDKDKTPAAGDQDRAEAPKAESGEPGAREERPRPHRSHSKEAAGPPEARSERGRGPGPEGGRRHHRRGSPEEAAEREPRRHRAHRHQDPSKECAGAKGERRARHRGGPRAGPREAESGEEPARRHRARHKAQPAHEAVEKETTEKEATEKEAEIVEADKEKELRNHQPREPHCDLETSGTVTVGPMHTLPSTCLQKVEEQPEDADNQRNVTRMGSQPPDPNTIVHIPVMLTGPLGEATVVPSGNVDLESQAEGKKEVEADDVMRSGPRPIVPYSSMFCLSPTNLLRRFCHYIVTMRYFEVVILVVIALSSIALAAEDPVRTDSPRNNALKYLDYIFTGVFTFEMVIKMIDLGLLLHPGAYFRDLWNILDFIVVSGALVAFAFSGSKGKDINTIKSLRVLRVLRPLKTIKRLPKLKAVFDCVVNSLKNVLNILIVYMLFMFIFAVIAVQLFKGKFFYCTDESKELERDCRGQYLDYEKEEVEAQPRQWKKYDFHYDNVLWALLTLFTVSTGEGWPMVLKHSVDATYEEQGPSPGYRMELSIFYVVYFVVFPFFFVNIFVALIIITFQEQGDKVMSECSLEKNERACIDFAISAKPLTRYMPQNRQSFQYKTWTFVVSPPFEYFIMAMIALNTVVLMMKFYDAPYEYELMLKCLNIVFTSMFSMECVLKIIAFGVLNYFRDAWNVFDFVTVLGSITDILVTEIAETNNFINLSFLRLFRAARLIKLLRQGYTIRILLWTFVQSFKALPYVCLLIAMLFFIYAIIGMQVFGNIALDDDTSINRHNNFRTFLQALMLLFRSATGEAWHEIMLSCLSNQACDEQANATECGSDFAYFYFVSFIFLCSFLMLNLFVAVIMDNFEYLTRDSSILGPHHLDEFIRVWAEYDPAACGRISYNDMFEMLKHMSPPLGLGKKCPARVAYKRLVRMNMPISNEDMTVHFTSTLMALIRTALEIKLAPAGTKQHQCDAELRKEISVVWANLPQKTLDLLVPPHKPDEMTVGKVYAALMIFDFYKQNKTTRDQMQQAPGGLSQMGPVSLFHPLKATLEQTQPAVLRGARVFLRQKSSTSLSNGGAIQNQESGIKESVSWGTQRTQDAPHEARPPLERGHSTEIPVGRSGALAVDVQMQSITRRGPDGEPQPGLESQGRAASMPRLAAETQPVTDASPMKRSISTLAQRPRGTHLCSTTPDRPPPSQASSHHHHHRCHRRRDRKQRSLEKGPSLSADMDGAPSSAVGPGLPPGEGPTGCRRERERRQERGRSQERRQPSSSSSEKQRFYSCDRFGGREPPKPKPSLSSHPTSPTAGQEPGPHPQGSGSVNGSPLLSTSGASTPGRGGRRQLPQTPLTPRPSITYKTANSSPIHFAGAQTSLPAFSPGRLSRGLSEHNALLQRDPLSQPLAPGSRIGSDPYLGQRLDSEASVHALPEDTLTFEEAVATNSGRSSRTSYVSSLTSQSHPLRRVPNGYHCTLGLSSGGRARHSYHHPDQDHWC
With `N#CC(C#N)=NNc1ccc(S(N)(=O)=O)cc1`, the inhibition turned out to be 76.5%. The value for `CC1=C(C(=O)O)N2C(=O)C(NC(=O)CCCC(=O)O)C2SC1` (stereo unspecified) was 86.6%; that for `COc1ccc(N2C(=O)NC(=O)/C(=C\c3ccc([N+](=O)[O-])s3)C2=O)cc1` was 68.3%.

Consider `Nc1cc2nc3ccccc3nc2cc1N`, for which the inhibition was 72.5%. The value for `COc1cccc(N2C(=O)NC(=O)/C(=C\c3ccc([N+](=O)[O-])s3)C2=O)c1` was 69.3%; that for `CN(C)c1nc(-c2ccccc2)[n+](C)s1` was 74.6%; that for `O=C1NC(=O)C(=Cc2ccc(SC3CCCCC3)o2)C(=O)N1` was 46.5%. The value for `O=C(O)CCn1cc(C=C2C(=O)NC(=S)NC2=O)c(-c2cccc(Cl)c2)n1` was 62.8%.

Regarding `O=C1NC(=S)N(c2ccc(F)cc2)C(=O)/C1=C/c1ccco1`, the inhibition turned out to be 92.3%. To `COc1cc(/C=C/c2nc3ccccc3c(=O)n2-c2ccccc2O)ccc1O` belongs 60%; to `O=C1NC(=O)N(CCc2ccc(F)cc2)C(=O)/C1=C/c1ccco1`, 60.3%; to `O=C(O)CCn1cc(C=C2C(=O)NC(=S)NC2=O)c(-c2ccccc2)n1`, 66%. To `O=C(O)CCn1cc(C=C2C(=O)NC(=S)NC2=O)c(-c2cc3ccccc3oc2=O)n1` belongs 66.7%; to `O=C(c1ccc2nc(-c3ccco3)c(-c3ccco3)nc2c1)N1CCC2(CC1)OCCO2`, 48.5%; to `O=C1NC(=O)N(c2ccccc2)C(=O)/C1=C/c1ccc(Sc2ccccc2)o1`, 68.9%. As for `CC1=C(C(=O)O)N2C(=O)[C@@H](NC(=O)CCCC(=O)O)[C@H]2SC1`, the inhibition was determined as 78%. The value for `Cc1ccc2c(c1)=C/C(=C\c1c(O)[nH]c(=S)[nH]c1=O)C(=O)N=2` was 64.2%; that for `O=C1NC(=O)N(Cc2ccccc2)C(=O)/C1=C/c1cnn(-c2ccccc2)c1` was 34%; that for `O=C1NC(=O)C(=Cc2ccc(-c3cc(Cl)ccc3[N+](=O)[O-])o2)C(=O)N1` was 72.8%. Turning to `Cn1c(O)c(/C=C/C=Nc2ccccc2)c(=O)n(C)c1=S`, the inhibition was 69.2%. Consider `C=CCOc1ccc(CC2C(=O)N(C)C(=O)N(C)C2=O)cc1`, for which the inhibition amounted to 66.2%.
